The subject of the experiment is NCI-H841 complex tumor spheroid viability. As to the kind of experiment: Anticancer human tumor NCI-H841 cell line growth inhibition.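 For all read-outs here: spheroids exposed to compounds for 7 days before readout.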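 For viability, T/C: 100% = DMSO vehicle control wells.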 Particulars: for IC50: compound alone; for viability, T/C: stronger effect = lower value. The source says: Multicellular complex tumor spheroid response to DNA repair inhibitors in combination with DNA-damaging drugs
This study explores the anticancer activities of DNA-damaging drugs and inhibitors of DNA damage repair, both as single agents and in combinations. Complex tumor spheroids comprised of malignant cells, endothelial cells and mesenchymal stem cells served as an in vitro model for human solid tumors. This model system incorporates physiologically relevant features and patient-derived or established malignant cell lines with clinically relevant genetic alterations from many tumor types. Twenty-six patient-derived or established malignant cell lines were evaluated representing sarcoma, melanoma, small cell lung cancer (SCLC), non-small cell lung cancer (NSCLC), as well as bladder, ovarian and pancreatic cancers. The concentration ranges selected for each drug and investigational agent were based upon clinically achievable concentrations if the clinical Cmax of the agent was known.
Compounds. The drugs and compounds olaparib (NSC753686), talazoparib (NSC767125), berzosertib (NSC777718), elimusertib (NSC800525), nedisertib (NSC802822), VX-984 (NSC792969), AZD-1390 (NSC803789), temozolomide (NSC362856), topotecan (NSC609699), trabectedin (NSC813783), staurosporine (NSC755774), and gemcitabine (NSC613327) were obtained from the National Cancer Institute (NCI) Developmental Therapeutics Program Chemical Repository. The FDA-approved anticancer drug set is available from the Developmental Therapeutics Program at https://dtp.cancer.gov/organization/dscb/obtaining/available_plates.htm. […] The stock solutions were prepared in dimethyl sulfoxide (DMSO, Sigma-Aldrich, St. Louis, MO, cat. D2650) at 400-fold the tested concentration and stored at -70 degrees C. Prior to their use, the stock solutions were diluted in fresh medium and the final DMSO concentration in the assay was 0.25% (v/v). All drugs and investigational agents were tested over a range starting from a high concentration at or near the clinical Cmax and decreasing in half-log increments. If the clinical Cmax for an agent had not been determined, the highest concentration tested was 10 microM.
Cell Lines. The patient-derived cancer cell (PDC) lines: 156681-154-R-J1-PDC, 283228-195-R-J1-PDC, 287954-098-R-J1-PDC, 292921-168-R-J2-PDC, 349418-098-R-PDC, 425362-245-T-J1-PDC, 556581-035-R-J1-PDC, and BL0293-F563-PDC were received from the NCI Patient-Derived Models Repository (PDMR, https://pdmr.cancer.gov). The established cell lines HS-SY-2 (RRID:CVCL_8719), MPNST, and SYO-1 (RRID:CVCL_7146) were obtained from the Sloan Kettering Institute. The alveolar soft parts sarcoma cell line ASPS-1 (RRID:CVCL_S738) was established at the NCI and grown from internal seed stocks. The following established cell lines were purchased from the American Type Culture Collection (ATCC, Manassas, VA): G-401 (ATCC, cat. CRL-1441, RRID:CVCL_0270), SW982 (ATCC, cat. HTB-93, RRID:CVCL_1734), VA-ES-BJ (ATCC, cat. CRL-2138, RRID:CVCL_1785), NCI-H719 (ATCC, cat. CRL-5837, RRID:CVCL_1582), NCI-H196 (ATCC, cat. CRL-5823, RRID:CVCL_1509), NCI-H841 (ATCC, cat. CRL-5845, RRID:CVCL_1595), NCI-H1618 (ATCC, cat. CRL-5879, RRID:CVCL_1480), NCI-H1876 (ATCC, cat. CRL-5902, RRID:CVCL_1503), DMS 114 (ATCC, cat. CRL-2066; RRID:CVCL_1174), NCI-H211 (ATCC, cat. CRL-5824; RRID:CVCL_1529), and SW 1271 (ATCC, cat. CRL-2177, RRID:CVCL_1716). The small cell lung cancer cell line COR-L88 was purchased from Sigma-Aldrich (cat. 92031917-1VL, RRID:CVCL_1141). The non-small cell lung cancer cell lines NCI-H226 (RRID:CVCL_1544) and NCI-H322M (RRID:CVCL_1557) were established at the NCI and grown from internal seed stocks. Pooled donor human umbilical vein endothelial cells (HUVEC, Lonza, cat. CC-2519) and human mesenchymal stem cells (hMSC, Lonza, cat. PT-2501) were purchased from Lonza (Walkersville, MD).
Cell Culture. All cells were maintained in an incubator at 37 degrees C and 5% CO2 with 95% humidity. […]

The structures appear in SMILES notation. The source holds more than one record for some entries. The list is limited to them. There may be further records. The values listed for one entry repeat one measurement across runs, samples, wells, individuals or studies. Marks such as (2×) stand for listed records that agree. A date in brackets names the month of the test.

On to `Cn1ncnc1[C@H]1c2n[nH]c(=O)c3cc(F)cc(c23)N[C@@H]1c1ccc(F)cc1`, for which the IC50 is < 9.49 nM, 341 nM [2019-11] and 697 nM [2019-12]. Besides, the viability, T/C (compound alone 0.949 µM) was 8.22%, 7.69% [2019-11] and 37.9% [2019-12]. As for `O=C(c1cc(Cc2n[nH]c(=O)c3ccccc23)ccc1F)N1CCN(C(=O)C2CC2)CC1`, the viability, T/C (compound alone 9.49 µM) was 7.6%, 31.3% [2019-11] and 5.24% [2019-12]. As for `COc1cc2c(cc1O)CCNC21CSC2c3c(OC(C)=O)c(C)c4c(c3C(COC1=O)N1C(O)C3Cc5cc(C)c(OC)c(O)c5C(C21)N3C)OCO4` (stereo not drawn), for the setting “compound alone 0.0003 µM”, the viability, T/C is 11.6, 42.3, 43.9 (2×), 44.1, 42.6, 39.7, 29.2, 20.4, 45.3%.

As for `COc1cc(C)[nH]c(=O)c1CN1CCc2c(Cl)cc(C(OC)C3COC3)c(Cl)c2C1=O` (stereo not drawn), the IC50 was 344 nM [2019-11] and > 10 µM [2019-12]. Consider `CC[C@@]1(O)C(=O)OCc2c1cc1n(c2=O)Cc2cc3c(CN(C)C)c(O)ccc3nc2-1`, for which, for the setting “compound alone 0.00949 µM”, the viability, T/C is 62.1, 58.2, 61.5, 64.1, 69.2% [2019-11] and 86.1, 85, 87, 84.2, 84% [2019-12]. Turning to `Cn1nnc2c(C(N)=O)ncn2c1=O`, the viability, T/C is, setting by setting: (compound alone 31.6 µM) 105, 102 (2×), 97.6, 96.9, 99.3, 1.65, 101% (2×); (compound alone 100 µM) 101, 100, 95.9, 103, 95.8, 1.49, 99.5, 96.6, 94.9%.

The values are drawn from PubChem BioAssay AID1845213 (Molecular Pharmacology Branch, DTP, NCI, 2023).
